The results in this text go back to ChEMBL document CHEMBL4888484, “Replenishing the malaria drug discovery pipeline: Screening and hit evaluation of the MMV Hit Generation Library 1 (HGL1) against asexual blood stage Plasmodium falciparum ,using a nano luciferase reporter read-out” (2022).

Hit rate of the full screen: of about 150,000 compounds, about 540 (0.36%) showed an effect of 50% or more. Some of the results follow.

For this assay, the system named is Plasmodium falciparum. Nature of the assay: Primary screen in NF54 nanoGlo assay, in single point, at 2uM, 72h; a lower Z score goes with more inhibition. It counts as functional, Erythrocyte. The conditions noted are these: timepoint 72 hour.
Broadly, the % Inhibition is the change of the read-out against control, counted positive when it falls. Turning to `CN1CCCCC[C@H]1C(=O)N[C@H]1CC[C@H](O)CC1`, the “% Inhibition” value is -25% and the Z score amounted to 2.2.

For the molecule `O=C1[C@@H]2CCCN2S(=O)(=O)N1CC1CCC2(CC1)OCCO2`, the “% Inhibition” value is reported as -10% and the Z score is recorded as 1.22.

In the case of `O=C(NCC1CC12CCc1ccccc12)c1ccc2nncn2c1` (stereo not drawn), the “% Inhibition” value is on record as -2% and the Z score came to 0.28.

On to `Cn1cc(C(=O)N2CCc3[nH]c(-c4cccc(F)c4)nc3C2)cn1`, for which the “% Inhibition” value came to 2% and the Z score was -0.18.

Regarding `O=C(c1ccc(OC(F)F)nc1)N1CCO[C@H](c2ncon2)C1`, the “% Inhibition” value is recorded as -6% and the Z score is on record as 0.96.

With `CCCC1CC(C(=O)NC(C)C(C)CO)CCO1` (stereo not drawn), the “% Inhibition” value is -6% and the Z score turned out to be 1.18.

Regarding `COCCNC(=O)c1cc2n(n1)CCCN(Cc1cccc(C)c1)C2=O`, the “% Inhibition” value is -8% and the Z score is 1.39.

`CCc1[nH]nc(-c2ccccc2OC)c1NC(=O)CC1CCCC1`: the “% Inhibition” value is listed as -18% and the Z score worked out at 1.8.

In the case of `CCc1nsc(Nc2cnn(CCN3CCCCC3)c2)n1`, the “% Inhibition” value is -2% and the Z score is 0.33.

As for `COc1cccc(-c2nc(CCN)no2)c1OC`, the “% Inhibition” value is on record as -6% and the Z score was determined as 0.82.

On to `CC(C)N(C)C(=O)N1Cc2ccccc2C[C@@H]1C`, for which the “% Inhibition” value was 2% and the Z score was -0.21.

Take `COc1cc(C)ccc1OCc1nc(C(=O)NC(C)C)cs1`: the “% Inhibition” value is reported as -6% and the Z score came to 1.12.

Turning to `O=C(CCc1ccc(-c2ccccc2)o1)N1CCOCC1`, the “% Inhibition” value is listed as -6% and the Z score is listed as 1.05.

For the molecule `CN(C)c1ccc(CNc2nnc[nH]2)cc1F`, the “% Inhibition” value was -9% and the Z score is reported as 1.9.

As to `Cc1nc(C(C)C)sc1[C@H](C)N(C)S(=O)(=O)C1CCS(=O)(=O)CC1`, the “% Inhibition” value amounted to 3% and the Z score is reported as -0.59.

As for `Cc1cc(=O)cc(O)n1CCn1cnc2ccccc21`, the “% Inhibition” value is given as -3% and the Z score came out at 0.33.

Turning to `CN1C(=O)[C@@]2(c3ccccc31)[C@@H](C(=O)NCc1ccc3c(c1)OCO3)C[C@H]1CCCN12`, the “% Inhibition” value is reported as -14% and the Z score is recorded as 1.38.

`O=C(NCC1CC1)C1(NCc2nc(-c3ccoc3)no2)CCCC1`: the “% Inhibition” value is given as -4% and the Z score is listed as 0.43.

Take `Cc1ccc(S(=O)(=O)N2CCN(C(=O)[C@@H]3CCCCO3)CC2)cc1`: the “% Inhibition” value is recorded as -10% and the Z score is given as 2.08.

As for `Cn1nnc2c(C(C)(C)C)cc(C(C)(C)C)c-2n1`, the “% Inhibition” value is on record as -30% and the Z score is 3.57.

Consider `C[C@]12C(=O)N(C3CCCCC3)CC(=O)N1CCc1c2[nH]c2ccccc12`, for which the “% Inhibition” value is recorded as 1% and the Z score is -0.17.

As for `CCC#CCN1CCC[C@H](CNC(=O)c2cncnc2C)C1`, the “% Inhibition” value is on record as -12% and the Z score was 1.48.

For `COc1ccccc1N1CCN(C(=O)C[C@@H]2CCNC[C@@H]2Cc2cc(C(C)(C)C)on2)CC1`, the “% Inhibition” value is on record as 28% and the Z score is listed as -3.19.

Turning to `Cc1conc1CNC(=O)CCCNC(=O)OC(C)(C)C`, the “% Inhibition” value stood at 6% and the Z score was -0.64.

Take `Cc1cc(C(=O)NCC2CCC(C(=O)N(C)C)O2)co1` (stereo not drawn): the “% Inhibition” value is reported as -3% and the Z score is recorded as 0.43.

`c1csc(CCN2CCC[C@H](Cn3cncn3)C2)c1`: the “% Inhibition” value came out at 11% and the Z score is listed as -1.46.

In the case of `CNc1ncc(C(=O)N2CCC[C@H](C(=O)c3cc(C)c(OC)c(C)c3)C2)cn1`, the “% Inhibition” value is given as 4% and the Z score is on record as -0.72.

With `CCc1cnc(C)nc1N(C)C[C@H]1CCCCN1C`, the “% Inhibition” value turned out to be 8% and the Z score is -0.96.

On to `Cc1nnc(N2CCN(C(=O)C(C)C)CC2)c(C#N)c1C`, for which the “% Inhibition” value is -4% and the Z score worked out at 0.54.

As to `CC(=O)Nc1cccnc1NC(=O)c1cccn1C1CC1`, the “% Inhibition” value is -1% and the Z score was determined as 0.09.

Consider `CC(C)c1cc(NCCCOc2cccnc2)nc(N)n1`, for which the “% Inhibition” value is -18% and the Z score was 1.97.

As to `COc1ccc(Cc2n[nH]c(CCc3cnn(C)c3)n2)cc1`, the “% Inhibition” value is reported as -9% and the Z score is 1.71.

As for `CCC1=C(c2ccc(C)cc2)S(=O)(=O)N=C1N1CCC(C(=O)NCCN2CCCC[C@@H]2C)CC1`, the “% Inhibition” value amounted to 53% and the Z score was -6.49.

Turning to `C[C@@H](C(=O)NCCOCCO)n1cc(Cl)cn1`, the “% Inhibition” value is 5% and the Z score is on record as -0.66.

As for `COC[C@H](C)NC(=O)c1ccc(C(F)(F)F)cc1`, the “% Inhibition” value stood at 2% and the Z score is reported as -0.19.

Regarding `Cn1cc(C(=O)O)c(-c2ccc(NS(=O)(=O)c3ccccc3OC(F)(F)F)cc2)n1`, the “% Inhibition” value is reported as -10% and the Z score came to 2.07.

On to `CC1CC(N2CCC(CN(C)C(=O)OC(C)(C)C)CC2)C(=O)O1` (stereo not drawn), for which the “% Inhibition” value is -8% and the Z score is reported as 0.77.

For `CCCc1cnc(C)nc1N1CCC[C@H](c2nnc(CN(C)C)n2C)C1`, the “% Inhibition” value is listed as -6% and the Z score was determined as 1.15.

For `COCCC1(CNC(=O)NC2CCCCC2OC)CC1` (stereo not drawn), the “% Inhibition” value was -14% and the Z score was 1.85.

As for `O=C(Nc1ccn(CC(F)(F)F)n1)N1CC[C@H](CN2CCCC2)C1`, the “% Inhibition” value is reported as -11% and the Z score came to 1.44.

`Cc1cc(-n2nc(CCc3ccccc3)nc2[C@H]2CCOC2)ccn1`: the “% Inhibition” value is 2% and the Z score was -0.16.

`COCCNC(=O)N1CCCn2nc(-c3cccc(OC)c3)cc2C1`: the “% Inhibition” value is recorded as -5% and the Z score came to 0.53.

Take `COCCN(CCOc1ccccc1F)S(=O)(=O)c1ccc(F)cc1F`: the “% Inhibition” value is given as -10% and the Z score is recorded as 1.4.

Take `Cc1nc(Cn2nnc(NS(=O)(=O)N3CCC4(CCCCC4)CC3)c2C)no1`: the “% Inhibition” value is on record as -8% and the Z score worked out at 1.15.
